Test results: PubChem BioAssay AID902 (National Center for Advancing Translational Sciences (NCATS), 2007)
Values joined by “and” are separate entries in the source; they are usually repeats but may differ in a detail not shown here. Equal entries are not always repeated. Hit rate of the full screen: of about 130,000 compounds, about 1,900 (1.5%) were called active. This list was built around the results that the source calls inconclusive (neither active nor inactive); the mix of calls is not that of the screen. Calls come from the whole dose curve; as a rule, active = well fitted cell-killing curve with a large enough effect; inconclusive = small, poorly fitted or top-dose-only effect; inactive = no such curve, though single readings can be large or run the other way. Potencies of inconclusive entries are doubtful fits and often do not repeat. A structure can be active in one record and inactive in another.

Assay: qHTS Screen for Compounds that Selectively Target Cancer Cells with p53 Mutations: Cytotoxicity of p53ts Cells at the Nonpermissive Temperature; note: nearly all actives have a fitted effect of over 55% in size
Settings: H1299-p53A138V viability at 39C, ATP luminescence, 24 h; activity change, negative = cell killing: at 46.1 µM (top of the series)
% is set by controls: 0 for no effect and ±100 for the full control effect; potency is the fitted concentration of half-maximal effect; tags give direction and shape of the fitted curve.

Structure (SMILES)	Potency	activity change, negative = cell killing
C[C@@H]1OC(OC2C(OC3CC[C@@]4(C)C5CC=C6C7CC(C)(C)CC[C@@]7(C(=O)O)CCC6(C)C5(C)CCC4[C@]3(C)CO)OCC(O)C2O)C(O)C(O)C1O (some centres undefined)	inconclusive: 31.6 µM [cytotoxic, single point]	
Cc1cc(Cl)ccc1OCC(=O)N1CCN(C)CC1		inactive: 9.1%
COC(=O)[C@@]1(Cc2ccccc2)[C@H]2c3cc(C(=O)N(C)C)[nH]c3C[C@H]2CN1C(=O)c1ccccc1		inactive: -11.1%
N#Cc1cc2c(nc1SCC(=O)Nc1ccc(C(F)(F)F)cc1)C1CCN2CC1	inconclusive: 0.794 µM [cytotoxic, full curve, poor fit]	
Cc1ccccc1C(=O)Nc1ccc(C(=O)OCc2cc(=O)n3nc(C4CC4)sc3n2)cc1	inconclusive: 10 µM [cytotoxic, partial curve]	
Cc1cccc(-n2c(O)c(C=Nc3ccccc3N)c(=O)[nH]c2=O)c1	inconclusive: 15.8 µM [cytotoxic, single point]	
CCN(CC)C(=O)N[C@H]1C[C@H]2c3cccc4[nH]cc(c34)C[C@@H]2N(C)C1		inactive: -5.44%
Cc1ccc2nc(N3CCC(C(=O)N4CCC5(CC4)OCCO5)CC3)sc2c1		inactive: -18%
C[C@]12[C@H](O)CC3C(CC[C@@H]4C[C@@H](O)CC[C@]34C)[C@@]1(O)CC[C@@H]2C1=CC(=O)OC1 (some centres undefined)	inconclusive: 0.631 µM [cytotoxic, full curve]	
CC[C@]1(O)CC(O[C@@H]2CC(N(C)C)C(O)C(C)O2)c2c(cc3c(c2O)C(=O)c2c(O)cccc2C3=O)C1C(=O)OC (some centres undefined)	inconclusive: 6.31 µM [cytotoxic, partial curve]	
Cc1ccc(Cl)cc1Nc1nn2c(=O)c3ccc(C(=O)NCc4cccs4)cc3nc2s1	active: 15.8 µM	
CCCCCCC(N)CC(=O)O (centres undefined)		inactive: 10.2%
C[C@@H]1O[C@H](O[C@@H]2C=C3CC[C@H]4[C@@H](CC[C@]5(C)[C@@H](c6ccc(=O)oc6)CC[C@]45O)[C@@]3(C)CC2)[C@@H](O)[C@H](O)[C@@H]1O	inconclusive: 0.0079 µM [cytotoxic, full curve]	
[Cd+2].[Cl-].[Cl-]	active: 1.26 µM	
COc1cc2c(cc1O)C(CCc1ccc(Cl)cc1)N(C)CC2 (centres undefined)	inconclusive: 25.1 µM [cytotoxic, partial curve, poor fit]	
Clc1ccc(C(c2ccc(Cl)cc2)n2cc[n+](C[C@@H](OCc3ccc(Cl)cc3Cl)c3ccc(Cl)cc3Cl)c2)cc1	active: 15.8 µM	
O=C(Cn1c(=O)n(CC2CCC(C(=O)NCCc3ccccc3)CC2)c(=O)c2ccccc21)Nc1cccc(F)c1 (centres undefined)	inconclusive: 15.8 µM [cytotoxic, single point]	
NS(=O)(=O)c1ccc(N=Cc2c(O)n(C3CCCCC3)c(=O)n(C3CCCCC3)c2=O)cc1	inconclusive: 31.6 µM [cytotoxic, single point]	
COc1cccc(NC(=O)c2ccc3c(=O)n4nc(Nc5ccccc5OC)sc4nc3c2)c1	inconclusive: 2.51 µM [cytotoxic, partial curve, poor fit]	
COC1=C(C)C(=O)c2c(c(COC(N)=O)c3n2C[C@@H]2[C@@H]3N2C)C1=O (some centres undefined)	inconclusive: 6.31 µM [cytotoxic, single point]	
COc1ccc(C(=O)Nc2ccc(-c3nc4ccccc4s3)c(Cl)c2)cc1Cl	inconclusive: 10 µM [cytotoxic, partial curve]	
COC(=O)[C@]1(C)CC[C@@]2(C)CC[C@@]3(C)C4=CCc5c(cc(O)c(O)c5C)[C@]4(C)CC[C@@]3(C)C2C1 (some centres undefined)	inconclusive: 31.6 µM [cytotoxic, single point]	

Structure (SMILES)	Potency	activity change, negative = cell killing
CC1(C)CCC(C)(C)c2c1ccc(O)c2Cc1c(O)ccc2c1C(C)(C)CCC2(C)C	inconclusive: 5.01 µM [cytotoxic, single point]	
[CH3][Hg][Cl]	active: 15.8 µM	
c1ccc2c(c1)OC[C@@H](C1=NCCN1)O2	inconclusive: 31.6 µM [cytotoxic, single point]	
COc1ccc(Cn2c(N)c(C(=O)NCc3ccco3)c3nc4ccccc4nc32)cc1	inconclusive: 20 µM [cytotoxic, single point]	
CCCC/C(C)=C/[C@@H](NP(=O)(c1ccccc1)c1ccccc1)c1ccccc1	inconclusive: 25.1 µM [cytotoxic, single point]	
COc1ccc(P2(=O)Nc3ccccc3N2)cc1	inconclusive: 10 µM [cytotoxic, partial curve]	
CC(=O)Oc1ccc(/C=C/c2cc(OC(C)=O)cc(OC(C)=O)c2)cc1	active: 6.31 µM	
CN(CC1COc2ccccc2O1)c1nc(-c2cccnc2)nc2ccccc12 (centres undefined)	inconclusive: 20 µM [cytotoxic, single point]	
CC[C@]1(O)C(=O)OCc2c1cc1n(c2=O)Cc2cc3ccccc3nc2-1	inconclusive: 0.251 µM [cytotoxic, full curve]	
Cc1ccc(-c2nc3ccccc3c(=O)n2-n2cccc2)cc1		inactive: 2.26%
Nc1c(C(=O)Nc2cccc(Br)c2)sc2nc3c(cc12)N1CCC3CC1	inconclusive: 25.1 µM [cytotoxic, single point]	
CCCCCCCCCc1ccc(O)cc1	inconclusive: 25.1 µM [cytotoxic, single point]	
O=C(CN1C(=O)CN=C(c2ccccc2)c2ccccc21)Nc1cccc(C(F)(F)F)c1	inconclusive: 25.1 µM [cytotoxic, single point]	
[O]=[Cr](=[O])([OH])[O][Cr](=[O])(=[O])[OH]	active: 10 µM	
COc1ccc(CCN2CCC(CNC(=O)c3cnn(-c4ccc(C)cc4)c3C3CCN(C(=O)OC(C)(C)C)CC3)CC2)cc1	inconclusive: 25.1 µM [cytotoxic, single point]	
C[C@@]12CC[C@H]3[C@@H](CC[C@]4(O)C[C@H](O)CC[C@@]34C=O)[C@]1(O)CC[C@@H]2C1=CC(=O)OC1	inconclusive: 0.501 µM [cytotoxic, full curve]	
Clc1cccc(N2CCNCC2)c1	inconclusive: 12.6 µM [cytotoxic, partial curve]	
Cc1cc(C)cc(OCC(=O)Nc2ccc(Cl)cc2C(=O)c2ccccc2)c1	inconclusive: 15.8 µM [cytotoxic, single point]	
Cn1cc(CCC(=O)N2CCC3(CC2)OCCO3)c2ccccc21		inactive: 5.17%
COc1cccc(N2CCN(Cc3ccc(Cl)cc3)CC2)c1		inactive: 4.1%
CC[C@@]1(O)C(=O)OCc2c1cc1n(c2=O)Cc2cc3ccccc3nc2-1	inconclusive: 251 nM [cytotoxic, full curve] and inconclusive: 199 nM [cytotoxic, full curve]	
Cc1ccc(Cn2c(=O)n(CCCCC(=O)NCc3ccccc3Cl)c(=O)c3ccccc32)cc1	inconclusive: 10 µM [cytotoxic, single point]	

Structure (SMILES)	Potency	activity change, negative = cell killing
CC(CCc1ccccc1)NC(C)C(O)c1ccc(O)cc1 (centres undefined)		inactive: 4.94%
COP(=S)(OC)Oc1ccc([N+](=O)[O-])cc1	inconclusive: 25.1 µM [cytotoxic, single point]	
COc1ccc(NC(=O)c2ccco2)cc1NC(=O)COc1cccc(C)c1C	inconclusive: 7.94 µM [cytotoxic, partial curve]	
C[C@H](CC(C#N)(c1ccccc1)c1ccccc1)N1CCCCC1		inactive: -1.01% [at 9.22 µM]
CC1(C)CN=C(Nc2nc3ccccc3s2)S1	inconclusive: 15.8 µM [cytotoxic, single point]	
CCCN1CCc2cccc3c2[C@@H]1Cc1ccc(O)c(O)c1-3	inconclusive: 25.1 µM [cytotoxic, single point]	
COc1ccc(C=O)cc1		inactive: 2.94%
CCCC1=Nc2cc(C(=O)NCCCN(CC)CC)ccc2Sc2ccccc21	inconclusive: 20 µM [cytotoxic, single point]	
COc1ccc(Br)cc1C1SCC(=O)Nc2c1c(C)nn2-c1ccccc1C (centres undefined)	inconclusive: 0.126 µM [cytotoxic, full curve, poor fit]	
CC[C@H](CO)NC(=O)[C@@H]1C=C2c3cccc4c3c(cn4C)C[C@@H]2N(C)C1		inactive: 14.5%
CCOCN(C(=O)CCl)c1c(C)cccc1CC	inconclusive: 31.6 µM [cytotoxic, single point]	
Fc1ccc(C(OCCN2CCN(CCCc3ccccc3)CC2)c2ccc(F)cc2)cc1	active: 20 µM and active: 31.6 µM	
COC(=O)C[C@]1(C(=O)OC)CN(C#N)N(c2ccc(Cl)cc2)C12c1ccccc1-c1ccccc12	inconclusive: 11.2 µM [cytotoxic, single point]	
Cc1ccc(-c2nc(S(=O)(=O)c3ccccc3)c(SCC(=O)NC3CCCCC3)o2)cc1	active: 1.58 µM	
C=C(C)CN1CC[C@@]23c4c5ccc(O)c4O[C@H]2c2[nH]c4ccccc4c2C[C@]3(O)[C@@H]1C5	active: 31.6 µM	
CC1=NN(c2ccccc2)C(=O)[C@@H]1N=Nc1ccc([As](=O)(O)O)c(O)c1		inactive: 3.74% [at 9.22 µM]
COc1ccc(-c2nc3ccccc3o2)cc1NC(=O)Cc1ccc(Cl)cc1	inconclusive: 15.8 µM [cytotoxic, single point]	
C[C@@H](Cc1ccccc1)NCCC(c1ccccc1)c1ccccc1	active: 12.6 µM	
CC1=C(O)C(=O)C=C2C1=CC=C1[C@]2(C)CC[C@@]2(C)C3C[C@](C)(C(=O)O)CC[C@@]3(C)CC[C@@]12C (some centres undefined)	inconclusive: 3.16 µM [cytotoxic, single point]	
CCOc1ccc(-c2cc(C(=O)N3CCC4(CC3)OCCO4)c3ccccc3n2)cc1	inconclusive: 1.58 µM [cytotoxic, full curve]	
